Values marked as one replicate rest on one cluster of the flow cell; about a third of the high ones do not repeat.

Switch fluorescence ratio data for 78 sequences are collected here from the supplement of paper PMC10126150.

The data set deals with ATP. The data set can be described thus: switch fluorescence ratio, 500 uM ATP over buffer (Cy3 cluster intensity, sum of 5 cycles each) (fold (ratio)); higher = stronger signal-on switching upon ATP binding; sequences stand for … in TCGTCGGCAGCGTCAGATGTGTATAAGAGACAGTTTTTTTTTTTTTTTTTTTTTTTTT…TC. Particulars: aptamer strand: ATP DNA aptamer (quencher-CACCTGGGGGAGTATTGCGGAGGAAGG + anchor), 100 nM annealed; ATP concentration: 500 uM; one replicate. The essentials: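 The quencher-labelled ATP aptamer, at 100 nM, was annealed to Cy3-labelled switching-strand clusters on a modified Illumina MiSeq flow-cell. The clusters were imaged in selection buffer, then after 15 min with 500 uM ATP at 22 °C, and this buffer/ATP cycle ran five times with NaOH stripping and re-annealing between runs. Per-cluster fluorescence ratios, summed target-cycle over summed buffer-cycle Cy3 intensity, were averaged per switch-domain sequence. Clusters outside 100-1000 RFU were excluded.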
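Note: ATP exposure 15 min at 22 °C before imaging.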

Turning to GCGATCTACC, the switch fluorescence ratio is 1.77.

Regarding TCCTGTGGGC, the switch fluorescence ratio came out at 1.03.

With TATCTGAGCG, the switch fluorescence ratio is 0.986.

Turning to ATCGACTGAA, the switch fluorescence ratio was 1.03.

For the sequence AATCTATTT, the switch fluorescence ratio stood at 1.02.

Consider CCATCCAGAA, for which the switch fluorescence ratio was 1.07.

Regarding GTTAACGAGT, the switch fluorescence ratio came to 1.

As for TGACCGTACA, the switch fluorescence ratio turned out to be 1.53.

Turning to CAATCAGCTA, the switch fluorescence ratio was found to be 1.05.

With GCCTTTGTGG, the switch fluorescence ratio was 0.996.

CCCGGATGGA: the switch fluorescence ratio is 0.973.

Regarding GGGATCGCAT, the switch fluorescence ratio was 1.04.

In the case of CGCCCTTGCA, the switch fluorescence ratio came out at 1.03.

For the sequence GCGGCATAAG, the switch fluorescence ratio came to 1.01.

Turning to AAGCTTTATA, the switch fluorescence ratio is 1.03.

AAGACTCAAT: the switch fluorescence ratio turned out to be 1.04.

As for AATAGTCTTA, the switch fluorescence ratio is 0.993.

For the sequence GCAGCAGCGA, the switch fluorescence ratio was found to be 1.16.

AGAAGTGGAC: the switch fluorescence ratio worked out at 0.982.

AAGTCGTAAA: the switch fluorescence ratio was found to be 1.03.

With ACTGTATATA, the switch fluorescence ratio is 1.24.

Turning to TAGTACGTAG, the switch fluorescence ratio was determined as 1.06.

Turning to GGCTTCTGAA, the switch fluorescence ratio was determined as 1.

Take GCCGCCCTGT: the switch fluorescence ratio came out at 1.19.

Turning to CAACGGAGGA, the switch fluorescence ratio is 1.02.

As for CCTTAATTCA, the switch fluorescence ratio was found to be 0.979.

With TTTCAGCGTC, the switch fluorescence ratio was found to be 1.11.

Take TTTTCTCAAT: the switch fluorescence ratio was determined as 1.

For the sequence GGGGATTCTC, the switch fluorescence ratio is 0.962.

Turning to CTCTTCGACC, the switch fluorescence ratio was 1.06.

For TTAGGTTCGC, the switch fluorescence ratio came to 1.07.

Consider AAGCCAGGAG, for which the switch fluorescence ratio was found to be 1.14.

Turning to TTGATCGAAT, the switch fluorescence ratio came out at 0.944.

For the sequence TACATTATGG, the switch fluorescence ratio is 0.955.

Consider AACGAATCGA, for which the switch fluorescence ratio is 0.98.

Turning to AGCACAATGG, the switch fluorescence ratio amounted to 1.05.

For the sequence GATAGTGTGC, the switch fluorescence ratio amounted to 1.07.

Consider TGTTGACGAA, for which the switch fluorescence ratio worked out at 1.01.

On to TATCGCGAGC, for which the switch fluorescence ratio amounted to 0.953.

For TATATGGGAC, the switch fluorescence ratio is 1.05.

Consider CACGTTAGTA, for which the switch fluorescence ratio was determined as 0.989.

For AGCGCATGTA, the switch fluorescence ratio was 0.987.

As for GGGAACGCGC, the switch fluorescence ratio worked out at 1.04.

On to CTTGCGGAAT, for which the switch fluorescence ratio was 1.49.

With TGGGACAAAT, the switch fluorescence ratio stood at 1.

Turning to AGAACTCGGA, the switch fluorescence ratio amounted to 0.969.

Take CCACTAGATT: the switch fluorescence ratio was 1.07.

For AACGAGCCCG, the switch fluorescence ratio is 0.989.

On to TTCTCAACCT, for which the switch fluorescence ratio came to 1.67.

As to ATGTAGAAAC, the switch fluorescence ratio worked out at 1.09.

For the sequence TTGTAAGCTA, the switch fluorescence ratio amounted to 1.29.

With TGGAGAGTTT, the switch fluorescence ratio came to 0.98.

Consider CTGAGAGTAG, for which the switch fluorescence ratio was found to be 1.02.

For the sequence TCTGGAGCTT, the switch fluorescence ratio came out at 3.75.

As to GCAGTCCGTA, the switch fluorescence ratio amounted to 1.04.

Turning to CACGATTTTG, the switch fluorescence ratio was found to be 0.986.

Take CAGTGCTCTT: the switch fluorescence ratio turned out to be 0.988.

AGTTTTAATC: the switch fluorescence ratio amounted to 0.988.

Turning to CGGTCGGTTC, the switch fluorescence ratio came out at 1.01.

For the sequence CCACAACTGT, the switch fluorescence ratio was determined as 1.03.

As to TTTTCCGGCT, the switch fluorescence ratio was found to be 1.03.

On to ATGTTGAAAG, for which the switch fluorescence ratio was 0.989.

Regarding TAGCTGTAGG, the switch fluorescence ratio is 0.964.

GCCTGATGAA: the switch fluorescence ratio was 0.993.

For the sequence GCACTTAAGA, the switch fluorescence ratio was 1.03.

With GTGCGAATCC, the switch fluorescence ratio worked out at 1.04.

On to TGGACCTCAA, for which the switch fluorescence ratio is 1.

In the case of GCGATTTAAT, the switch fluorescence ratio was 0.976.

For CCTTGGGGA, the switch fluorescence ratio is 1.19.

Turning to AATGAAATTT, the switch fluorescence ratio stood at 1.04.

As for GAGGGGCTT, the switch fluorescence ratio is 1.02.

Regarding CAATCGAGC, the switch fluorescence ratio came out at 1.02.

AATCCAGATA: the switch fluorescence ratio was found to be 1.03.

GAGAACTTTC: the switch fluorescence ratio is 0.945.

Take CACATGATTA: the switch fluorescence ratio amounted to 1.03.

For the sequence AGATGGCTTC, the switch fluorescence ratio came out at 1.01.

As for ATCCCCCTTT, the switch fluorescence ratio stood at 1.03.

For TTAAAAATTA, the switch fluorescence ratio worked out at 1.02.
